This is an account of results in PubChem BioAssay AID1508624 (National Center for Advancing Translational Sciences (NCATS), 2021).

Among all 48,000 compounds or so, about 120 (0.25%) were called active. Roughly 4% stayed inconclusive and do not appear here. Calls follow the shape of the dose curve; as a rule, active = well fitted activation curve with a large enough effect; inconclusive = small, poorly fitted or top-dose-only effect, or another doubt; inactive = no such curve, though single readings can be large or run the other way. This is one part of the list.

The nature of this assay: Primary qHTS for Identification of Small Molecule Activators of Huntingtin-Antisense Promoter Activity. Also: nearly all actives have a fitted effect of over 55% in size. Conditions: HEK293 HTT-AS promoter firefly luciferase reporter (activity 0% = vehicle and -100% = no light), 24 h; series mostly up to 57.5 µM; activity change, positive = activation: at the top concentration. The essentials:
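HEK293 cells carrying firefly luciferase reporters were seeded at 2,500 per well in Opti-MEM and cultured for 24 h. They were then treated with compounds at up to 57.5 uM final for 24 h at 37 degrees C before Dual-Glo luminescence readout.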
`CCCn1c(CN2CCN(c3ccc(OC)cc3)CC2)nc2c1c(=O)[nH]c(=O)n2C`: the “activity change, positive = activation” value is inactive: -4.76%.

For the molecule `COc1cc(-c2cc3n(C)c(C)c(CCC(=O)O)c(=O)n3n2)cc(OC)c1OC`, the “activity change, positive = activation” value was inactive: 0.92%. Regarding `CCOc1ccc(NC(=O)C2CCN(C(=O)N3CC(C)Oc4ccc(Cl)cc43)CC2)cc1` (configuration not stated), the “activity change, positive = activation” value is inactive: -32.2%. For the molecule `Cc1cc2oc(C(=O)Nc3ccc(S(=O)(=O)N(C)Cc4ccccc4)cc3)cc(=O)c2cc1C`, the “activity change, positive = activation” value was inactive: -6.13%. Regarding `CC(C)CC(=O)Nc1nnc(S(=O)(=O)N(CC(C)C)c2ccccc2)s1`, the “activity change, positive = activation” value was inactive: -12.2%. Regarding `Cc1ccc(CNC(=O)CCC(=O)N2CC3CCCN3c3ccccc32)cc1` (configuration not stated), the “activity change, positive = activation” value is inactive: 4.93%. Consider `Cn1c(=O)c2c(ncn2CC2OCCO2)n(C)c1=O`, for which the “activity change, positive = activation” value is inactive: 3.04%. Under `O=C(Nc1ccc2oc(-c3cc(Br)ccc3Cl)nc2c1)c1cc2ccccc2o1` stands inactive: -43.4%; under `Cc1ccc(N2CCN(C(=O)C3CCN(S(=O)(=O)c4ccc5c(c4)oc(=O)n5C)CC3)CC2C)cc1` (configuration not stated), inactive: -36.2%. In the case of `CC(=O)c1ccc(NC(=O)CCc2c(C)nn(-c3ccc(N4CCOCC4)nn3)c2C)cc1`, the “activity change, positive = activation” value is inactive: 16.8%. On to `Cc1cc(C)c(S(=O)(=O)NCCc2cc3ccc(C)c(C)c3[nH]c2=O)c(C)c1`, for which the “activity change, positive = activation” value was inactive: -4.67%. As for `O=c1c2sc3ccccc3c2n(Cc2cccc(Cl)c2)c(=O)n1Cc1ccco1`, the “activity change, positive = activation” value is inactive: -31%.

For `Cc1ccccc1OCCn1c(=N)n(C(C)C)c2ccccc21`, the “activity change, positive = activation” value is inactive: -20.9%. `Cc1cc(C)cc(-n2c(C)nc3cc(C(=O)O)ccc32)c1`: the “activity change, positive = activation” value is inactive: -3.42%. As for `Cc1cccc(OCc2nc(CC(=O)Nc3ccc(C)c(C)c3)cs2)c1`, the “activity change, positive = activation” value was inactive: -3.3%. In the case of `CCOc1ccc(NC(=O)CCc2c(C)nc3nc(C)nn3c2C)cc1`, the “activity change, positive = activation” value was inactive: -7.33%.

Turning to `CCOC(=O)c1c(C)oc2nc(C)nc(NCCCN3CCN(c4ccccc4)CC3)c12`, the “activity change, positive = activation” value is inactive: -19.9%. For the molecule `COC(=O)C(CCSC)NC(=O)C1CCN(c2ncnc3c2nc2n3CCCCC2)CC1` (configuration not stated), the “activity change, positive = activation” value was inactive: 13.4%. As for `Fc1ccc(-n2ncc3c(NC4CCCCCC4)ncnc32)cc1`, the “activity change, positive = activation” value was inactive: 33.7%. For `CCNC(=O)CC1C(=O)N(c2ccc(F)cc2)C(=O)N1CCOC` (configuration not stated), the “activity change, positive = activation” value is inactive: 4.16%. As for `COc1ccccc1CNC(=O)c1ccc(Cn2c(SCc3ccccc3)nc3cccnc32)cc1`, the “activity change, positive = activation” value was inactive: -1.57%.

For `CCOc1ccc(C(=O)N2CCC(c3nnc(-c4ccccc4OC)o3)CC2)cc1`, the “activity change, positive = activation” value was inactive: 13.8%. Under `CCCCCCCC(=O)OCC(COC(=O)CCCCCCC)OC(=O)CCCCCCC` stands inactive: -3.26%; under `N#Cc1ccccc1CN1C(=O)c2ccccc2Sc2ccc(C(=O)OCc3ccco3)cc21`, inactive: -41.7%. As to `O=C(CCc1ccccc1)NCc1nc2cccnc2n1Cc1ccc(F)cc1`, the “activity change, positive = activation” value was inactive: -7.43%. Under `CCOC(=O)N1CCc2c(sc3c2c(=O)n(-c2ccccc2)c(=O)n3CC(=O)Nc2ccc(OC)cc2OC)C1` stands inactive: 21.8%.

`COc1ccc(NC(=O)CN2CCN(Cc3ccccc3)S2(=O)=O)c(OC)c1`: the “activity change, positive = activation” value is inactive: -0.689%. For `CCOc1ccc(OCC)c(NC(=O)c2cc(S(=O)(=O)N3CCCC3)cn2C)c1`, the “activity change, positive = activation” value was inactive: -19.3%. On to `CCc1ccccc1N1CC(c2nc3ccccc3n2CCCOc2ccc(Cl)cc2)CC1=O` (configuration not stated), for which the “activity change, positive = activation” value was inactive: 7.08%. For `COc1cc(OC)c(NC(=O)c2csc3c2CCC(C)C3)cc1Cl` (configuration not stated), the “activity change, positive = activation” value is inactive: 1.67%. For the molecule `CCOc1ccccc1NC(=O)Cn1c(=O)n(CCC(=O)NCc2ccc3c(c2)OCO3)c(=O)c2ccccc21`, the “activity change, positive = activation” value is inactive: -5.23%.

With `COc1ccccc1CNC(=O)c1cc2cc3ccc(Cl)cc3nc2o1`, the “activity change, positive = activation” value was inactive: -9.65%. `COc1ccc(CCNC(=O)CCc2c(C)nc3c(c(C)nn3-c3ccc(C)c(C)c3)c2C)cc1OC`: the “activity change, positive = activation” value was inactive: -8.35%. Regarding `COc1ccccc1N1CCN(c2ccc(NC(=O)c3ccc(C)cc3)cc2C(=O)O)CC1`, the “activity change, positive = activation” value is inactive: 6.81%.

With `Cc1c(CNC2CCCCC2)c(C(=O)O)c(C)n1Cc1c(F)cccc1Cl`, the “activity change, positive = activation” value is inactive: -10.1%. On to `Cc1ccc(NC(=O)CCCn2c(=O)c3cccn3c3ccccc32)c(Cl)c1`, for which the “activity change, positive = activation” value was inactive: 5.78%. Under `CCOc1ccc(NC(=O)C(CC)n2c(=O)c(-c3ccccc3NC(C)=O)nc3ccccc32)cc1` (configuration not stated) stands inactive: -34.4%.

`Cc1ccc(CNC(=O)Cn2cc(S(=O)(=O)Cc3ccccc3Cl)c3ccccc32)cc1`: the “activity change, positive = activation” value is inactive: -39.4%. `O=C(CCOc1ccccc1)N(Cc1cccnc1)c1nc2c(F)cc(F)cc2s1`: the “activity change, positive = activation” value is inactive: -28.4%. Take `COc1ccc(CNC(=O)c2cnc3sc(N4CCOCC4)nn3c2=O)cc1`: the “activity change, positive = activation” value is inactive: -9.62%. For `COc1cc(OC)c(NC(=O)N2CCSc3ccccc32)cc1Cl`, the “activity change, positive = activation” value was inactive: -38.7%.

Regarding `COc1ccc(C(=O)Nc2cc3c(cc2C(=O)c2ccccc2Cl)OCCO3)cc1`, the “activity change, positive = activation” value is inactive: -8.76%. To `O=C(CSC1=Nc2ccccc2C2=NC(CCC(=O)NC3CCCCC3)C(=O)N12)Nc1cccc(C(F)(F)F)c1` (configuration not stated) belongs inactive: -27.7%; to `Cc1cc(Cl)ccc1NC(=O)c1cccc(NC(=O)N2CCSc3ncccc32)c1`, inactive: -14.8%; to `Cc1ccc(C(=O)CC2(O)C(=O)N(CCc3ccccc3)c3ccc(Br)cc32)cc1` (configuration not stated), inactive: -38.9%. To `CCc1cccc(NC(=O)CN2C(=O)COc3ccc(S(=O)(=O)N4CCC(C)CC4)cc32)c1` belongs inactive: -20.4%; to `CC(=O)Nc1ccc(S(=O)(=O)NC2(C(F)(F)F)C(=O)Nc3c2c(=O)[nH]c(=O)n3-c2ccc(C)cc2)cc1` (configuration not stated), inactive: 3.3%.
